{"source": "PubChem BioAssay AID602233", "about": "(National Center for Advancing Translational Sciences (NCATS), 2012)", "note": "The campaign covered roughly 380,000 compounds. About 170 (0.045%) were called active. Inconclusive results, whose numbers are uncertain, are shown with a selection of clear calls. Calls follow the shape of the dose curve; as a rule, active = well fitted inhibition curve with a large enough effect; inconclusive = small, poorly fitted or top-dose-only effect; inactive = no such curve, though single readings can be large or run the other way. Potencies of inconclusive entries are left out as doubtful fits. % is scaled to controls: 0 for no effect and ±100 for the full control effect; potency is read from the fitted curve at half-maximal effect; tags tell the direction and shape of the fitted curve.", "data": [{"biological_target": "Phosphoglycerate kinase, glycosomal (Trypanosoma brucei brucei) (UniProt P07378)", "assay": "qHTS Assay to Find Inhibitors of Phosphoglycerate Kinase; also: nearly all actives have a fitted effect of over 60% in size", "settings": "PGK/GAPDH coupled, Kinase-Glo luminescence, 60 min; series mostly up to 57.5 µM; activity change, negative = inhibition: at the top concentration", "procedure,_shortened": "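Luminescent ATP detection (Kinase-Glo Plus) follows a 60-minute room-temperature incubation, with wells lacking PGK as controls. Buffer: 100 mM TEA (pH 7.6), 5 mM MgCl2, 0.01% Tween-20. Coupling enzyme GAPDH (100 nM final) supplies unstable 1,3-BPG in-well.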", "values": [{"smiles": "CCN(CC)C(=O)Oc1ccc2c(=O)c(-c3ccccc3)coc2c1", "Potency": "inconclusive [inhibitor, partial curve, poor fit]"}, {"smiles": "COc1ccc(-c2cc(C)no2)cc1S(=O)(=O)Nc1cccc(C(F)(F)F)c1", "activity change, negative = inhibition": "inactive: -0.584%"}, {"smiles": "N/C(=N\\OC(=O)c1cccc(F)c1)c1ccccn1", "Potency": "inconclusive [inhibitor, partial curve, poor fit]"}, {"smiles": "CC(C)CCN1CCN(Cc2ccc3nsnc3c2)CC1CCO", "note": "(configuration not stated)", "Potency": "inconclusive [inhibitor, partial curve, poor fit]"}, {"smiles": "Cc1ccc(S(=O)(=O)OCC(=O)Nc2ccc(C(=O)O)c(O)c2)cc1", "Potency": "inconclusive [inhibitor, partial curve, poor fit]"}, {"smiles": "CCN(CC)c1ccc2nc3ccc(N)cc3[n+](-c3ccccc3)c2c1", "Potency": "inconclusive [inhibitor, partial curve, poor fit]"}, {"smiles": "COc1cc(/C=C(\\CCC(=O)O)c2nc3ccccc3s2)ccc1OCC(=O)Nc1c(Cl)cccc1Cl", "Potency": "inconclusive [inhibitor, partial curve]"}, {"smiles": "O=C(Nc1nccs1)c1ccc2nccnc2c1", "Potency": "inconclusive [inhibitor, partial curve, poor fit]"}, {"smiles": "O=C(O)c1ccc(CN2C(=O)c3ccc(C(=O)O)cc3C2=O)cc1", "activity change, negative = inhibition": "inactive: -1.04%"}, {"smiles": "COc1ccc(CCNc2cc(C)nc3c(-c4ccccc4)c(C)nn23)cc1OC", "activity change, negative = inhibition": "inactive: -5.55%"}, {"smiles": "O=S(=O)(O)c1cc(O)c2ccc(Nc3ccccc3)cc2c1", "Potency": "inconclusive [inhibitor, partial curve, poor fit]"}, {"smiles": "Cc1ccc(NC(=O)CSc2nc(NS(=O)(=O)c3ccccc3)cc(=O)[nH]2)cc1", "Potency": "inconclusive [inhibitor, single point]"}, {"smiles": "CCCC(=O)OCCNc1cc(Sc2nc3ccccc3[nH]2)c2nonc2c1[N+](=O)[O-]", "activity change, negative = inhibition": "inactive: -9.86%"}, {"smiles": "O=C1N=C(N2C=CC(=C3C=CNC=C3)C=C2)/C(=C/N=NC(=O)c2ccccc2O)S1", "Potency": "inconclusive [inhibitor, partial curve, poor fit]"}, {"smiles": "CC(C(=O)NC1C(=O)N2C(C(=O)O)=C(CSc3nnnn3C)CSC12)n1cc(Br)cn1", "note": "(configuration not stated)", "Potency": "inconclusive [inhibitor, partial curve, poor fit]"}, {"smiles": "CCC(=O)c1ccc(OCC(=O)OCc2csc(CC(=O)Nc3ccccc3C)n2)cc1", "Potency": "inconclusive [inhibitor, single point]"}, {"smiles": "COc1ccc(/C=N/NC(=O)c2ccc(COCC(F)(F)C(F)F)cc2)cc1", "activity change, negative = inhibition": "inactive: -8.52%"}, {"smiles": "Cc1ccc(/C=C2/C(=O)c3ccc(C(=O)O)cc3C2=O)o1", "Potency": "inconclusive [inhibitor, single point]"}, {"smiles": "Cn1ccnc1SCC(=O)c1ccc(O)cc1", "activity change, negative = inhibition": "inactive: -9.72%"}, {"smiles": "O=[N+]([O-])c1cccc(-c2ccc(/C=N/NC(=S)Nc3ccccc3)o2)c1", "activity change, negative = inhibition": "inactive: -2.98%"}, {"smiles": "CC1Cc2ccccc2N1C(=O)COC(=O)CCc1nc2ccccc2c(=O)[nH]1", "note": "(configuration not stated)", "activity change, negative = inhibition": "inactive: -2.64%"}, {"smiles": "O=C(O)c1ccc2c(=O)[nH]c(CCl)nc2c1", "activity change, negative = inhibition": "inactive: -0.218%"}, {"smiles": "CC(C)CCN(C(=O)c1csnn1)C(C(=O)NC1CCCCC1)c1ccc(F)cc1", "note": "(configuration not stated)", "activity change, negative = inhibition": "inactive: -0.339%"}, {"smiles": "Nc1nc(Nc2ccccc2)nc2ccccc12", "Potency": "inconclusive [inhibitor, single point]"}, {"smiles": "O=C(COC(=O)c1ccccc1[N+](=O)[O-])c1ccc2c(c1)OCO2", "Potency": "inconclusive [inhibitor, partial curve]"}, {"smiles": "CN1CCN(NC(=S)NC(C)(C)CC(C)(C)C)CC1", "activity change, negative = inhibition": "inactive: -2.02%"}, {"smiles": "Fc1cccc(/C=N/Nc2ncnc3nc[nH]c23)c1", "Potency": "inconclusive [inhibitor, partial curve, poor fit]"}, {"smiles": "Cn1cnnc1SCC(=O)Nc1ncc([N+](=O)[O-])s1", "Potency": "inconclusive [inhibitor, single point]"}, {"smiles": "O=S(=O)(c1cc(O)ccc1O)c1cccc2c(S(=O)(=O)c3cc(O)ccc3O)cccc12", "Potency": "inconclusive [inhibitor, partial curve, poor fit]"}, {"smiles": "O=c1c(-c2ccc([N+](=O)[O-])cc2)coc2c(O)c(O)ccc12", "Potency": "active: 8.91 µM"}, {"smiles": "N#C/C(=C\\c1ccc(OCc2ccc(F)cc2)cc1)C(=O)Nc1cccc(C(=O)O)c1", "Potency": "inconclusive [inhibitor, single point]"}, {"smiles": "CCOC(=O)Nc1nnc(Cc2ccc(Cl)c(Cl)c2)s1", "activity change, negative = inhibition": "inactive: 5.09%"}, {"smiles": "Nc1c(/C=C2/C=CC(=O)C(O)=C2)c(=O)nc2sc(CC(=O)N3CCOCC3)nn12", "Potency": "inconclusive [inhibitor, partial curve]"}, {"smiles": "N#Cc1c(SCC(=O)Nc2nc3ccc(Br)cc3s2)sc2c(O)cc(=O)[nH]c12", "Potency": "inconclusive [inhibitor, single point]"}, {"smiles": "Cc1c(-c2ccc(Cl)cc2)oc(=O)c2c(N)n(-c3ccccc3)nc12", "activity change, negative = inhibition": "inactive: -17.3%"}, {"smiles": "Cc1ccc(C)n1-c1sccc1C(=O)O", "Potency": "inconclusive [inhibitor, partial curve, poor fit]"}, {"smiles": "COCCn1c(C)cc(C(=O)CSc2nnc(C)s2)c1C", "Potency": "inconclusive [inhibitor, partial curve, poor fit]"}, {"smiles": "O=C(COc1ccccc1C(=O)N/N=C\\c1ccc(O)c(O)c1)N/N=C/c1ccc(O)c(O)c1", "Potency": "active: 2.24 µM"}, {"smiles": "CN(C(=O)COC(=O)c1cc(-c2ccco2)nc2ccccc12)C1CCS(=O)(=O)C1", "note": "(configuration not stated)", "Potency": "inconclusive [inhibitor, partial curve, poor fit]"}, {"smiles": "Cc1onc(-c2c(F)cccc2Cl)c1C(=O)Nc1cc(S(=O)(=O)N2CCCCC2)ccc1O", "activity change, negative = inhibition": "inactive: 2.08%"}, {"smiles": "Cc1cc(=O)c2c(o1)C(=O)c1occc1C2=O", "Potency": "inconclusive [inhibitor, single point]"}, {"smiles": "c1ccn2cc(-c3ccc4c(c3)OCCO4)nc2c1", "Potency": "inconclusive [inhibitor, partial curve]"}, {"smiles": "COc1cc(/C=C(\\C#N)C(=O)Nc2cccc(C(=O)O)c2)ccc1OCc1ccc(Cl)cc1", "Potency": "inconclusive [inhibitor, partial curve, poor fit]"}, {"smiles": "CCC1(C(=O)OC)NC(c2ccco2)C2C(=O)N(c3ccc(F)cc3)C(=O)C21", "note": "(configuration not stated)", "Potency": "inconclusive [inhibitor, single point]"}, {"smiles": "CC(=O)Nc1ccc(S(=O)(=O)NC(CC(=O)NCCc2ccccc2)C(C)C)cc1", "note": "(configuration not stated)", "activity change, negative = inhibition": "inactive: -0.813%"}, {"smiles": "COc1ccc(NC(=O)CSc2nnc(CNc3ccc(C)cc3)n2C)cc1", "Potency": "inconclusive [inhibitor, single point]"}, {"smiles": "COc1ccccc1NS(=O)(=O)c1ccc2oc(SC(C)C(=O)N3CCNC3=O)nc2c1", "note": "(configuration not stated)", "activity change, negative = inhibition": "inactive: 5.04%"}, {"smiles": "O=C(N/N=C/c1ccc(O)c(O)c1)N/N=C/c1ccc(O)c(O)c1", "Potency": "inconclusive [inhibitor, full curve, poor fit]"}, {"smiles": "C=C1[C@H](C)CN(S(=O)(=O)C(C)(C)C)[C@H]1CCO", "activity change, negative = inhibition": "inactive: -3.98%"}, {"smiles": "C=C(C)CCOC(=O)C(CC(=O)O)NCc1ccco1", "note": "(configuration not stated)", "Potency": "inconclusive [inhibitor, partial curve, poor fit]"}, {"smiles": "NS(=O)(=O)c1ccc(NC(=O)CSc2nnc(NC3CC3)s2)cc1", "Potency": "inconclusive [inhibitor, partial curve]"}, {"smiles": "CC(=O)Oc1cc(C(=O)OCC(=O)NC23CC4CC(CC(C4)C2)C3)cc(OC(C)=O)c1OC(C)=O", "Potency": "inconclusive [inhibitor, partial curve, poor fit]"}, {"smiles": "Cc1cc(C=O)c(C)n1-c1ccc(Cl)c(C(=O)O)c1", "Potency": "inconclusive [inhibitor, partial curve, poor fit]"}, {"smiles": "N#Cc1c(-c2cccs2)nc(SCC(=O)c2ccc(Br)cc2)[nH]c1=O", "Potency": "inconclusive [inhibitor, single point]"}, {"smiles": "COCCNC(=O)COC(=O)c1cccnc1SC", "Potency": "inconclusive [inhibitor, single point]"}, {"smiles": "COc1ccccc1CNC(=O)c1ccc(N2CCCC2)c(NC(=O)NCc2ccccc2)c1", "Potency": "inconclusive [inhibitor, partial curve, poor fit]"}, {"smiles": "COCCn1c(Br)nc2c1c(=O)n(C)c(=O)n2C", "activity change, negative = inhibition": "inactive: -5.67%"}, {"smiles": "COc1ccc(NC(=O)CSc2nc(-c3ccccc3)nc3cc(=O)[nH]n23)cc1", "Potency": "inconclusive [inhibitor, partial curve, poor fit]"}, {"smiles": "CSc1nc(N(C)CCO)c2sc3nc(-c4ccco4)c4c(c3c2n1)CCC4", "Potency": "inconclusive [inhibitor, partial curve]"}, {"smiles": "O=C(/C=C/c1ccco1)NC(=S)Nc1cccc(C(=O)O)c1", "Potency": "inconclusive [inhibitor, partial curve, poor fit]"}, {"smiles": "CCCC/C(O)=C/c1nc2ccccc2[nH]c1=O", "outcome": "inactive"}, {"smiles": "COc1ccc2nc(NC(=O)c3cc(C)oc3C)sc2c1", "Potency": "inconclusive [inhibitor, partial curve, poor fit]"}, {"smiles": "Cc1ccc(NC(=O)CN2C(=O)S/C(=C\\c3ccc(OCC(=O)O)c(Br)c3)C2=O)cc1", "Potency": "inconclusive [inhibitor, partial curve]"}, {"smiles": "O=C(COc1ccc2c(c1)CCC2)Nc1ccccn1", "Potency": "inconclusive [inhibitor, partial curve]"}, {"smiles": "Cc1ccc(C(=O)Nc2ccnc(-c3cccnc3)n2)cc1", "activity change, negative = inhibition": "inactive: -2.74%"}, {"smiles": "O=c1cc(-c2ccc(O)cc2)oc2cc(O)c(C3OC(CO)C(O)C(O)C3O)c(O)c12", "note": "(configuration not stated)", "Potency": "inconclusive [inhibitor, partial curve]"}, {"smiles": "Cc1cc(Cl)ccc1NC(=S)N1CCN(C(=O)C2CCCO2)CC1", "note": "(configuration not stated)", "Potency": "inconclusive [inhibitor, single point]"}]}]}
